Data reported in the supplement of paper PMC6089552.
The campaign covered roughly 3,200 compounds. About 300 (9.4%) showed activity. The list shows a part of the results, in another mix than the full data.

System: A673/TR/shEF
Assay: cell viability (LOESS-normalised, relative to median of negative controls) (log2 ratio); higher = more viable cells (less compound effect), active = hit call of the paper (over 3 MAD below the median)
Details: treatment time: 72 h
Summary of the method: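 Viability of A673/TR/shEF Ewing sarcoma cells was determined by CellTiter-Glo luminescence. The cells, at 1,500 per well in 384-well plates, were grown with or without doxycycline from 24 h before compound addition to switch on EWS-FLI1 shRNA knockdown, then exposed for three days to library compounds at two or more concentrations or to DMSO controls. Signals were LOESS-corrected plate by plate, normalised to the negative-control median and log2-transformed.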

[1] = 0.25 µM, library screen: screen1, EWS-FLI1 expression: high (no doxycycline)
[2] = 0.25 µM, library screen: screen1, EWS-FLI1 expression: low (doxycycline-induced shRNA knockdown)
[3] = 2.5 µM, library screen: screen1, EWS-FLI1 expression: high (no doxycycline)
[4] = 2.5 µM, library screen: screen1, EWS-FLI1 expression: low (doxycycline-induced shRNA knockdown)
[5] = 0.103 µM, library screen: screen3, EWS-FLI1 expression: high (no doxycycline)
[6] = 0.103 µM, library screen: screen3, EWS-FLI1 expression: low (doxycycline-induced shRNA knockdown)
[7] = 0.308 µM, library screen: screen3, EWS-FLI1 expression: high (no doxycycline)
[8] = 0.308 µM, library screen: screen3, EWS-FLI1 expression: low (doxycycline-induced shRNA knockdown)
[9] = 0.926 µM, library screen: screen3, EWS-FLI1 expression: high (no doxycycline)
[10] = 0.926 µM, library screen: screen3, EWS-FLI1 expression: low (doxycycline-induced shRNA knockdown)
[11] = 2.8 µM, library screen: screen3, EWS-FLI1 expression: high (no doxycycline)
[12] = 2.8 µM, library screen: screen3, EWS-FLI1 expression: low (doxycycline-induced shRNA knockdown)
[13] = 8.3 µM, library screen: screen3, EWS-FLI1 expression: high (no doxycycline)
[14] = 8.3 µM, library screen: screen3, EWS-FLI1 expression: low (doxycycline-induced shRNA knockdown)
[15] = 25 µM, library screen: screen3, EWS-FLI1 expression: high (no doxycycline)
[16] = 25 µM, library screen: screen3, EWS-FLI1 expression: low (doxycycline-induced shRNA knockdown)
[17] = 0.25 µM, library screen: screen2, EWS-FLI1 expression: high (no doxycycline)
[18] = 0.25 µM, library screen: screen2, EWS-FLI1 expression: low (doxycycline-induced shRNA knockdown)
[19] = 2.5 µM, library screen: screen2, EWS-FLI1 expression: high (no doxycycline)
[20] = 2.5 µM, library screen: screen2, EWS-FLI1 expression: low (doxycycline-induced shRNA knockdown)
[21] = 0.025 µM, library screen: screen2, EWS-FLI1 expression: high (no doxycycline)
[22] = 0.025 µM, library screen: screen2, EWS-FLI1 expression: low (doxycycline-induced shRNA knockdown)
[23] = 25 µM, library screen: screen2, EWS-FLI1 expression: high (no doxycycline)
[24] = 25 µM, library screen: screen2, EWS-FLI1 expression: low (doxycycline-induced shRNA knockdown)
[25] = 25 µM, library screen: screen1, EWS-FLI1 expression: high (no doxycycline)

Measured: cell viability (log2)

Nc1nccs1
inactive: [1] 0.00973 | [2] 0.0738 | [3] 0.0951 | [4] 0.156

CC(C)CCCC(C)C1CCC2C3CC=C4CC(=O)CCC4(C)C3CCC12C (configuration not stated)
inactive: [1] 0.0196 | [2] 0.0967 | [3] 0.0967 | [4] 0.133

NC(=O)c1cccnc1
inactive: [5] 0.137 | [6] -0.0312 | [7] 0.105 | [8] 0.0868 | [9] 0.118 | [10] 0.0325 | [11] 0.0811 | [12] 0.0605 | [13] 0.102 | [14] 0.0902 | [15] 0.0651 | [16] 0.111

NCCC(=O)N[C@@H](Cc1cnc[nH]1)C(=O)O
inactive: [1] 0.026 | [2] 0.0201 | [3] 0.0679 | [4] 0.084

OCc1ccc(-c2nn(Cc3ccccc3)c3ccccc23)o1
inactive: [17] 0.207 | [18] 0.0743 | [19] 0.176 | [20] 0.0539

S=c1nc[nH]c2nc[nH]c12
inactive: [21] 0.182 | [22] 0.0993 | [5] 0.0192 | [6] 0.0459 | [1] -0.0045 | [2] -0.00406 | [17] 0.161 | [18] 0.00291 | [7] 0.144 | [8] 0.158 | [9] 0.0964 | [10] 0.0595 | [4] 0.0219 | [19] -0.00564 | [20] 0.0787 | [11] 0.036 | [12] 0.0694 | [13] -0.147 | [14] 0.036 | [24] 0.0432 | [16] 0.056
active: [3] -0.186 | [23] -0.312 | [15] -0.314

CNC1(C)C2CCC(C2)C1(C)C (configuration not stated)
inactive: [1] 0.132 | [2] -0.0497 | [17] 0.155 | [18] 0.0768 | [3] 0.209 | [4] 0.0714 | [19] 0.169 | [20] 0.0595

CCCCCCCCCCCCCCCC[N+](C)(C)C
inactive: [1] 0.115 | [2] 0.0557 | [3] 0.0896 | [4] -0.153

N#CC(=C(/N)Sc1ccccc1N)/C(C#N)=C(\N)Sc1ccccc1N
inactive: [17] 0.102 | [18] 0.0572 | [19] -0.0299 | [20] -0.0332

CC1=C(C(=O)O)N2C(=O)[C@@H](NC(=O)[C@H](N)c3ccc(O)cc3)[C@H]2SC1
inactive: [1] 0.162 | [2] 0.185 | [3] 0.197 | [4] 0.208

COc1cc(C)c2c(=O)cc(-c3ccccc3)oc2c1
inactive: [1] 0.164 | [2] 0.157 | [3] 0.235 | [4] 0.304

CC(C)(Oc1ccc(C2CC2(Cl)Cl)cc1)C(=O)O (configuration not stated)
inactive: [17] 0.159 | [18] 0.148 | [19] 0.0707 | [20] 0.11

CC(=O)NCCc1ccc(O)c(O)c1
inactive: [17] -0.0226 | [18] 0.0196 | [19] 0.0668 | [20] 0.105

O=P(O)(O)C(O)(Cc1cccnc1)P(=O)(O)O
inactive: [5] 0.00356 | [6] 0.0332 | [7] -0.0598 | [8] 0.0284 | [9] -0.00429 | [10] -0.0275 | [11] -0.0278 | [12] 0.0358 | [13] 0.00755 | [14] 0.0577 | [15] 0.0619 | [16] 0.00618

N[C@@H](Cc1ccc(F)cc1)C(=O)O
inactive: [17] 0.199 | [18] 0.131 | [19] 0.111 | [20] 0.0302

Nc1nccc2c1ncn2[C@@H]1O[C@H](CO)[C@@H](O)[C@H]1O
inactive: [17] 0.199 | [18] 0.0735 | [19] 0.0748 | [20] 0.125

Nc1ccc(N=Nc2ccccc2)c(N)n1
inactive: [1] 0.0928 | [2] 0.128 | [3] 0.205 | [4] 0.206

CC(C)=CCc1c(O)cc(C)oc1=O
inactive: [1] 0.0912 | [2] -0.0147 | [3] 0.109 | [4] -0.0401

O=C(O)c1cc(O)c(O)c(O)c1
inactive: [1] 0.0108 | [2] 0.0712 | [3] 0.053 | [4] 0.123

CCN(CC)C(=O)N1CCN(C)CC1
inactive: [21] 0.0545 | [22] 0.0535 | [1] 0.0595 | [2] 0.134 | [17] -0.00062 | [18] 0.14 | [3] 0.0995 | [4] 0.2 | [19] 0.119 | [20] 0.0298 | [23] 0.126 | [24] 0.125

Cn1cnc2c(NC3CCCC3)ncnc21
inactive: [17] 0.163 | [18] 0.111 | [19] 0.133 | [20] 0.108

Oc1cc(O)c2c(c1)O[C@H](c1cc(O)c(O)c(O)c1)[C@H](O)[C@H]2c1c(O)cc(O)c2c1O[C@H](c1cc(O)c(O)c(O)c1)[C@H](O)[C@H]2c1c(O)cc(O)c2c1O[C@H](c1cc(O)c(O)c(O)c1)[C@H](O)C2
inactive: [1] -0.0224 | [2] 0.066 | [3] 0.107 | [4] 0.0716

CCN(CCCc1ccccc1)CCCc1ccccc1
inactive: [1] 0.0709 | [2] 0.129 | [3] 0.11 | [4] 0.151

CCOC(=O)c1c(C)cc(O)c(C)c1O
inactive: [1] 0.117 | [2] 0.0649 | [3] 0.0865 | [4] 0.119

Clc1ccc(COC(Cn2ccnc2)c2ccc(Cl)cc2Cl)cc1 (configuration not stated)
active: [15] -0.429

NC(=O)NO
inactive: [21] 0.198 | [22] 0.0401 | [5] 0.0434 | [6] -0.011 | [1] -0.0023 | [2] -0.0249 | [17] 0.143 | [18] 0.0451 | [7] 0.0507 | [8] 0.067 | [9] 0.0995 | [10] 0.0841 | [3] 0.136 | [4] 0.0792 | [19] 0.11 | [20] 0.0912 | [11] 0.0898 | [12] 0.0212 | [13] 0.00032 | [14] 0.0269 | [23] 0.147 | [24] 0.0856 | [15] 0.147 | [16] 0.101

Clc1ccccc1C(c1ccccc1)(c1ccccc1)n1ccnc1
inactive: [5] 0.121 | [6] 0.0866 | [1] 0.14 | [2] 0.136 | [17] 0.0798 | [18] 0.0728 | [7] 0.0878 | [8] 0.0769 | [9] 0.056 | [10] 0.0666 | [3] 0.208 | [4] 0.145 | [19] 0.0214 | [20] 0.0602 | [11] -0.00445 | [12] -0.01 | [13] 0.00659 | [14] 0.0692 | [15] -0.0612 | [16] 0.0839

N#C/C(=C\c1cc(Cl)cc(Cl)c1)c1cccnc1
inactive: 0.025 µM, library screen: screen1, EWS-FLI1 expression: high (no doxycycline) 0.0512 | 0.025 µM, library screen: screen1, EWS-FLI1 expression: low (doxycycline-induced shRNA knockdown) 0.0254 | [1] 0.126 | [2] 0.0849 | [3] 0.0839 | [4] 0.0837 | [25] -0.0133 | 25 µM, library screen: screen1, EWS-FLI1 expression: low (doxycycline-induced shRNA knockdown) 0.21

COc1cc(CC(=O)O)ccc1O
inactive: [17] 0.135 | [18] 0.0721 | [19] 0.111 | [20] 0.122

COc1c(OC)c2occc2c2oc(=O)ccc12
inactive: [1] 0.1 | [2] -0.00542 | [3] 0.166 | [4] 0.0421

CN1CCC[C@H]1c1cccnc1
inactive: [17] 0.141 | [18] 0.0551 | [19] 0.217 | [20] 0.147

CCCC(C(=O)OCCN(CC)CC)(c1ccccc1)c1ccccc1
inactive: [1] 0.0754 | [2] 0.00226 | [17] 0.129 | [18] 0.118 | [3] 0.0741 | [4] 0.137 | [19] 0.103 | [20] 0.0562

CN(C)c1ccc(/C=C2\C(=O)Nc3ccccc32)cc1
active: [17] -1.84 | [18] -0.565 | [3] -0.163 | [19] -2.61 | [20] -0.918 | [25] -0.158

CC(=O)OC(C)C[N+](C)(C)C (configuration not stated)
inactive: [1] 0.0221 | [2] 0.019 | [17] 0.251 | [18] 0.192 | [3] 0.142 | [4] 0.0296 | [19] 0.148 | [20] 0.163

CCCCOc1ccc(CC(=O)NO)cc1
inactive: [1] 0.0397 | [2] 0.0519 | [3] 0.124 | [4] 0.116

C=CCc1ccccc1OCC(O)CNC(C)C (configuration not stated)
inactive: [1] 0.0845 | [2] 0.135 | [18] 0.0871 | [3] 0.0928 | [4] 0.0547 | [19] 0.0869 | [20] 0.156
active: [17] -0.203

COc1ccc2c(c1)[C@@]1(C)CCC(=O)C[C@@H]1CC2
inactive: [1] 0.0574 | [2] 0.0238 | [3] 0.0895 | [4] 0.0859

Oc1c(Cl)cc(Cl)cc1Sc1cc(Cl)cc(Cl)c1O
inactive: [1] 0.0619 | [2] 0.103 | [3] 0.13 | [4] 0.141

Cc1ccc(O)c([C@H](CCN(C(C)C)C(C)C)c2ccccc2)c1
inactive: [5] 0.0223 | [6] 0.0884 | [1] 0.0284 | [2] 0.0425 | [7] -0.00678 | [8] 0.00909 | [9] -0.00772 | [10] 0.0528 | [3] 0.0568 | [4] 0.0269 | [11] 0.064 | [12] 0.0412 | [13] 0.0719 | [14] 0.0334 | [15] 0.0789 | [16] 0.0505
